Some of the results follow. The list includes weakly bound sequences.
What follows are sequences tested against T1, MBP-FoxP3dN (UniProt Q99JB6) (assay: PD-seq (MBP pull-down with sequencing)). Conditions: 20 mM Tris-HCl pH 7.5, 100 mM NaCl, 1.5 mM MgCl2, 0.4 uM protein, 0.1 uM dsDNA library, 30 min, room temperature, amylose pull-down; high values mean tight binding; double strand, one strand shown.
T1 sequence: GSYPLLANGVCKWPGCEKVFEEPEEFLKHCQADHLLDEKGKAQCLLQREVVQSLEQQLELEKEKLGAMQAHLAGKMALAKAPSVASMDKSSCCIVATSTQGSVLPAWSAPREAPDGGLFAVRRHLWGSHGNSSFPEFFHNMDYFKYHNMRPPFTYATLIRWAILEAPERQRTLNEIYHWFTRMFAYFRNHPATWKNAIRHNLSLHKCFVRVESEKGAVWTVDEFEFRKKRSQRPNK

Sequence	binding signal (RPM ratio (pull-down/input))
GATGATTGTTCTCCCAGCTGATGAATTAAGCATATCGAGTAAACAAATTTTCCTAATCTTTCTGTTCAAGCGCCATCTAC	2.49
GATGATTGTTCTCCCAGCTGATGAATTCTCATGGTCGAGTAAACAAATTTTCCTAATCTTTCTGTTCAAGCGCCATCTAC	0.26
GATGATTGTTCTCCCAGCTGATGAATTAGGTGAGTCGAGTAAACAAATTTTCCTAATCTTTCTGTTCAAGCGCCATCTAC	0.531
GATGATTGTTCTCCCAGCTGATGAATTCTGAACATCGAGTAAACAAATTTTCCTAATCTTTCTGTTCAAGCGCCATCTAC	0.395
GATGATTGTTCTCCCAGCTGATGAATTCAGACGCTCGAGTAAACAAATTTTCCTAATCTTTCTGTTCAAGCGCCATCTAC	0.349
GATGATTGTTCTCCCAGCTGATGAATTGGCTGGTTCGAGTAAACAAATTTTCCTAATCTTTCTGTTCAAGCGCCATCTAC	0.647
GATGATTGTTCTCCCAGCTGATGAATTATGTGGGTCGAGTAAACAAATTTTCCTAATCTTTCTGTTCAAGCGCCATCTAC	1.31
GATGATTGTTCTCCCAGCTGATGAATTTAGGAACTCGAGTAAACAAATTTTCCTAATCTTTCTGTTCAAGCGCCATCTAC	0.324
GATGATTGTTCTCCCAGCTGATGAATTCAGAAATTCGAGTAAACAAATTTTCCTAATCTTTCTGTTCAAGCGCCATCTAC	0.413
GATGATTGTTCTCCCAGCTGATGAATTGCTATTGTCGAGTAAACAAATTTTCCTAATCTTTCTGTTCAAGCGCCATCTAC	2.12
GATGATTGTTCTCCCAGCTGATGAATTTGTGGATTCGAGTAAACAAATTTTCCTAATCTTTCTGTTCAAGCGCCATCTAC	3.34
GATGATTGTTCTCCCAGCTGATGAATTTTGTCGTTCGAGTAAACAAATTTTCCTAATCTTTCTGTTCAAGCGCCATCTAC	3.85
GATGATTGTTCTCCCAGCTGATGAATTAAAAGGTTCGAGTAAACAAATTTTCCTAATCTTTCTGTTCAAGCGCCATCTAC	0.19
GATGATTGTTCTCCCAGCTGATGAATTATATGCCTCGAGTAAACAAATTTTCCTAATCTTTCTGTTCAAGCGCCATCTAC	0.913
GATGATTGTTCTCCCAGCTGATGAATTGAAACTCTCGAGTAAACAAATTTTCCTAATCTTTCTGTTCAAGCGCCATCTAC	0.35
GATGATTGTTCTCCCAGCTGATGAATTGAACTGATCGAGTAAACAAATTTTCCTAATCTTTCTGTTCAAGCGCCATCTAC	0.275
GATGATTGTTCTCCCAGCTGATGAATTCCCAGATTCGAGTAAACAAATTTTCCTAATCTTTCTGTTCAAGCGCCATCTAC	0.173
GATGATTGTTCTCCCAGCTGATGAATTTGTGTCGTCGAGTAAACAAATTTTCCTAATCTTTCTGTTCAAGCGCCATCTAC	5
GATGATTGTTCTCCCAGCTGATGAATTCAGATTCTCGAGTAAACAAATTTTCCTAATCTTTCTGTTCAAGCGCCATCTAC	0.534
GATGATTGTTCTCCCAGCTGATGAATTCGAGCATTCGAGTAAACAAATTTTCCTAATCTTTCTGTTCAAGCGCCATCTAC	4.97
GATGATTGTTCTCCCAGCTGATGAATTTAACATTTCGAGTAAACAAATTTTCCTAATCTTTCTGTTCAAGCGCCATCTAC	0.932

Sequence	binding signal (RPM ratio (pull-down/input))
GATGATTGTTCTCCCAGCTGATGAATTAACCCTCTCGAGTAAACAAATTTTCCTAATCTTTCTGTTCAAGCGCCATCTAC	0.3
GATGATTGTTCTCCCAGCTGATGAATTCCAAACATCGAGTAAACAAATTTTCCTAATCTTTCTGTTCAAGCGCCATCTAC	1.25
GATGATTGTTCTCCCAGCTGATGAATTCAGAGACTCGAGTAAACAAATTTTCCTAATCTTTCTGTTCAAGCGCCATCTAC	0.426
GATGATTGTTCTCCCAGCTGATGAATTGTACTTTTCGAGTAAACAAATTTTCCTAATCTTTCTGTTCAAGCGCCATCTAC	0.551
GATGATTGTTCTCCCAGCTGATGAATTTCCCTGATCGAGTAAACAAATTTTCCTAATCTTTCTGTTCAAGCGCCATCTAC	0.188
GATGATTGTTCTCCCAGCTGATGAATTAATAGTTTCGAGTAAACAAATTTTCCTAATCTTTCTGTTCAAGCGCCATCTAC	0.67
GATGATTGTTCTCCCAGCTGATGAATTACTCATGTCGAGTAAACAAATTTTCCTAATCTTTCTGTTCAAGCGCCATCTAC	0.381
GATGATTGTTCTCCCAGCTGATGAATTAATAATCTCGAGTAAACAAATTTTCCTAATCTTTCTGTTCAAGCGCCATCTAC	0.428
GATGATTGTTCTCCCAGCTGATGAATTGCCTGGATCGAGTAAACAAATTTTCCTAATCTTTCTGTTCAAGCGCCATCTAC	0.449
GATGATTGTTCTCCCAGCTGATGAATTGCTTGGGTCGAGTAAACAAATTTTCCTAATCTTTCTGTTCAAGCGCCATCTAC	0.775
GATGATTGTTCTCCCAGCTGATGAATTGGTTATATCGAGTAAACAAATTTTCCTAATCTTTCTGTTCAAGCGCCATCTAC	0.961
GATGATTGTTCTCCCAGCTGATGAATTGATCGCGTCGAGTAAACAAATTTTCCTAATCTTTCTGTTCAAGCGCCATCTAC	0.539
GATGATTGTTCTCCCAGCTGATGAATTCACTATGTCGAGTAAACAAATTTTCCTAATCTTTCTGTTCAAGCGCCATCTAC	0.482
GATGATTGTTCTCCCAGCTGATGAATTTTAGTCTTCGAGTAAACAAATTTTCCTAATCTTTCTGTTCAAGCGCCATCTAC	0.359
GATGATTGTTCTCCCAGCTGATGAATTTGCTTTGTCGAGTAAACAAATTTTCCTAATCTTTCTGTTCAAGCGCCATCTAC	6.34
GATGATTGTTCTCCCAGCTGATGAATTACCCAGTTCGAGTAAACAAATTTTCCTAATCTTTCTGTTCAAGCGCCATCTAC	0.256
GATGATTGTTCTCCCAGCTGATGAATTCTTACCATCGAGTAAACAAATTTTCCTAATCTTTCTGTTCAAGCGCCATCTAC	0.29
GATGATTGTTCTCCCAGCTGATGAATTCTGCCGGTCGAGTAAACAAATTTTCCTAATCTTTCTGTTCAAGCGCCATCTAC	0.75
GATGATTGTTCTCCCAGCTGATGAATTATACCACTCGAGTAAACAAATTTTCCTAATCTTTCTGTTCAAGCGCCATCTAC	0.6
GATGATTGTTCTCCCAGCTGATGAATTCCGCCGTTCGAGTAAACAAATTTTCCTAATCTTTCTGTTCAAGCGCCATCTAC	1.53
GATGATTGTTCTCCCAGCTGATGAATTCGGGTTCTCGAGTAAACAAATTTTCCTAATCTTTCTGTTCAAGCGCCATCTAC	0.692

Sequence	binding signal (RPM ratio (pull-down/input))
GATGATTGTTCTCCCAGCTGATGAATTGCCTCACTCGAGTAAACAAATTTTCCTAATCTTTCTGTTCAAGCGCCATCTAC	0.851
GATGATTGTTCTCCCAGCTGATGAATTCGGCCCGTCGAGTAAACAAATTTTCCTAATCTTTCTGTTCAAGCGCCATCTAC	1.14
GATGATTGTTCTCCCAGCTGATGAATTTACGACATCGAGTAAACAAATTTTCCTAATCTTTCTGTTCAAGCGCCATCTAC	0.807
GATGATTGTTCTCCCAGCTGATGAATTGTGCGATTCGAGTAAACAAATTTTCCTAATCTTTCTGTTCAAGCGCCATCTAC	2.62
GATGATTGTTCTCCCAGCTGATGAATTCGAAGTCTCGAGTAAACAAATTTTCCTAATCTTTCTGTTCAAGCGCCATCTAC	0.336
GATGATTGTTCTCCCAGCTGATGAATTGTGTCGTTCGAGTAAACAAATTTTCCTAATCTTTCTGTTCAAGCGCCATCTAC	2.73
GATGATTGTTCTCCCAGCTGATGAATTCCCCCTTTCGAGTAAACAAATTTTCCTAATCTTTCTGTTCAAGCGCCATCTAC	0.264
GATGATTGTTCTCCCAGCTGATGAATTCCCTGGATCGAGTAAACAAATTTTCCTAATCTTTCTGTTCAAGCGCCATCTAC	0.189
GATGATTGTTCTCCCAGCTGATGAATTCTCAGCTTCGAGTAAACAAATTTTCCTAATCTTTCTGTTCAAGCGCCATCTAC	0.293
GATGATTGTTCTCCCAGCTGATGAATTCGTATGGTCGAGTAAACAAATTTTCCTAATCTTTCTGTTCAAGCGCCATCTAC	1.74
GATGATTGTTCTCCCAGCTGATGAATTGCGGAACTCGAGTAAACAAATTTTCCTAATCTTTCTGTTCAAGCGCCATCTAC	0.52
GATGATTGTTCTCCCAGCTGATGAATTCCGCCGGTCGAGTAAACAAATTTTCCTAATCTTTCTGTTCAAGCGCCATCTAC	0.838
GATGATTGTTCTCCCAGCTGATGAATTACTTGTCTCGAGTAAACAAATTTTCCTAATCTTTCTGTTCAAGCGCCATCTAC	0.659
GATGATTGTTCTCCCAGCTGATGAATTCGGACCTTCGAGTAAACAAATTTTCCTAATCTTTCTGTTCAAGCGCCATCTAC	0.266
GATGATTGTTCTCCCAGCTGATGAATTTGAGCACTCGAGTAAACAAATTTTCCTAATCTTTCTGTTCAAGCGCCATCTAC	0.481
GATGATTGTTCTCCCAGCTGATGAATTTGTTACTTCGAGTAAACAAATTTTCCTAATCTTTCTGTTCAAGCGCCATCTAC	4.02
GATGATTGTTCTCCCAGCTGATGAATTAAGGAGTTCGAGTAAACAAATTTTCCTAATCTTTCTGTTCAAGCGCCATCTAC	0.421
GATGATTGTTCTCCCAGCTGATGAATTTTCCCCGTCGAGTAAACAAATTTTCCTAATCTTTCTGTTCAAGCGCCATCTAC	0.175
GATGATTGTTCTCCCAGCTGATGAATTTCTATGCTCGAGTAAACAAATTTTCCTAATCTTTCTGTTCAAGCGCCATCTAC	0.385
GATGATTGTTCTCCCAGCTGATGAATTTGTCAGTTCGAGTAAACAAATTTTCCTAATCTTTCTGTTCAAGCGCCATCTAC	2.89
GATGATTGTTCTCCCAGCTGATGAATTGCGTGCCTCGAGTAAACAAATTTTCCTAATCTTTCTGTTCAAGCGCCATCTAC	2.06

From article PMC12820563
